Several values for one entry are separate records, joined by “and”; a condition that tells them apart may be missing. Equal values may be shown once. Screen size: about 150,000 compounds; about 540 (0.36%) showed an effect of 50% or more. This is one part of the list.
Test system: Plasmodium falciparum
Assay: Primary screen in NF54 nanoGlo assay, in single point, at 2uM, 72h; a lower Z score goes with more inhibition
Format: functional, Erythrocyte
Conditions: timepoint 72 hour

Compound	% Inhibition	Z score	% Inhibition (2 µM)	Z score (2 µM)
OCc1ccc(CN2CCCc3ccccc32)o1	-5%	0.76	–	–
Cc1ccc(-c2ccc(=O)n(CCC(=O)NCCCN3CC(C)CC(C)C3)n2)cc1 (stereo not drawn)	-3%	0.46	–	–
C[C@@H](NC(=O)[C@H](c1ccccc1)n1cnnn1)c1nnc2ccccn12	-1%	0.07	–	–
COc1ccc(C(=O)Nc2ccccc2OC[C@H]2CCCCO2)c(OC)c1	-5%	0.58	–	–
O=C(NCCN1CCOCC1)c1csc(CN2CCC(Cc3ccccc3)CC2)n1	-7%	1.18	–	–
C[C@H](Oc1ccc(Cl)c(Cl)c1)C(=O)NCCCC(N)=O	-21%	3.47	–	–
CN1CCC[C@H](CN(C)C(=O)Nc2ccc(-c3cc[nH]n3)cc2)C1	-5%	0.92	–	–
Cc1nc(N)sc1-c1cc(-c2cccc(OC(F)F)c2)c(C#N)c(N)n1	-12%	1.34	–	–
O=C(Cn1ncn2nccc2c1=O)N1CCC[C@@H]1COc1ccc(F)cc1	1%	-0.09	–	–
CS(=O)(=O)N1CCC(NC(=O)C2=Cc3ccccc3OC2)CC1	1%	-0.1	–	–
Cn1cnc(-c2noc(C3C[C@@H]4C=C[C@H]3C4)n2)c1 (stereo partly drawn)	-1%	0.27	–	–
CCOc1ccccc1CCNC(=O)N1CCCC[C@H]1c1nnc2n1CCCC2	4%	-0.47	–	–
O=C(c1nnc2n1CCCCC2)N1CC(Oc2ccccc2)C1	-5%	1.03	–	–
N#Cc1c(NC(=O)CC2CCCC2)sc2c1CCCCC2	-6%	1.11	–	–
CC1CCCCC1NC(=O)COc1ccc(-c2ccccc2)cc1 (stereo not drawn)	1%	-0.14	–	–
COc1cc2c(cc1NC(=O)c1cc(-c3ccccc3)nc3ccccc13)oc1ccccc12	-6%	0.76	–	–
NC(=O)c1sccc1S(N)(=O)=O	8%	-1.01	–	–
C[C@H]1CCCCN1C(=O)c1csc(-c2cccs2)n1	-6%	1.04	–	–
CNc1ncccc1C(=O)N1CCC[C@H](CC(N)=O)CC1	-22%	3.15	–	–
CCOC(=O)c1[nH]c(CN(Cc2ccc(OC)cc2)S(=O)(=O)c2cc(C)cc(C)c2)c(C)c1C	5%	-0.48	–	–
CCCCC(C)N[C@@H](CO)Cc1ccccc1 (stereo partly drawn)	12%	-1.91	–	–

Compound	% Inhibition	Z score	% Inhibition (2 µM)	Z score (2 µM)
Cc1cc(Oc2nc(N3CCN(C)CC3)nc3c2CN(C(=O)NCc2ccccc2)CC3)ccc1F	-11%	1.47	–	–
NCC1CN(S(=O)(=O)CCc2c(F)cccc2F)CCC1C(F)(F)F (stereo not drawn)	-5%	0.75	–	–
Cc1cnc(N2CC(Cc3ccco3)C2)nc1	-6%	0.66	–	–
Cc1ncsc1-c1nnc(N2CCO[C@@H](CF)C2)n1CC(C)C	22%	-2.77	–	–
COCCN(Cc1cc(Cl)ccc1OS(C)(=O)=O)C(=O)CC(C)(C)C	-3%	0.47	–	–
CC[C@H](C)N(CC(=O)N(Cc1cccn1Cc1ccccc1Cl)CC(C)C)C(=O)c1ccc(Br)cc1	1%	-0.09	–	–
Cc1ccc(C(=O)N2CCC(COc3ccc(C(=O)N4CCOCC4)cc3)CC2)c(C)c1	-8%	1.56	–	–
COc1ccc(N2CCN(C(=O)[C@@H]3CCCN3C3=NS(=O)(=O)c4ccccc43)CC2)cc1	-31%	3.68	–	–
c1ccc(Oc2ccnc(NCC34COCCN3CCOC4)n2)cc1	41%	-4.86	–	–
CC(=O)N1CCC(NC(=O)c2cnn3ncccc23)CC1	-12%	2.36	–	–
N[C@H]1C[C@H](c2nnc(CNCc3ccc4c(c3)CCCC4)n2C2CC2)C1	-7%	1.05	–	–
Cn1ncc2c(c(-c3ccccc3)nn2Cc2ccccc2)c1=O	1%	-0.1	–	–
Cn1cc(C(NC(=O)Cc2ccc(F)c(Cl)c2F)[C@H]2C[C@H](O)C2)cn1 (stereo partly drawn)	-9%	0.97	–	–
CO[C@@H]1C[C@@H](CO)N(C(=O)COCC2CC2)C1	-12%	1.46	–	–
Cn1nc(-c2ccccn2)cc1CNC(=O)NCc1cccs1	-11%	1.26	–	–
C[C@H]1CS(=O)(=O)N(c2ccc(C(=O)NCc3ccccc3)c(Cl)c2)C1=O	5%	-0.6	–	–
CN(Cc1cscn1)C(=O)c1cc2cc(C3(O)CCN(C4CCCCC4)CC3)ccc2o1	7%	-0.94	–	–
NS(=O)(=O)c1ccc(CCNC(=O)C2(N3CCCC3)CCCCC2)cc1	7%	-1.31	–	–
COc1ccc(-c2n[nH]c(C3CC3)c2NC(=O)CC(C)C)cc1OC	-13%	1.23	–	–
O=C(NCCc1csc(-c2ccccc2)n1)[C@H]1CCCN1C(=O)c1ccccc1	-11%	1.42	–	–
Cc1cc(C)c(NC(=O)c2ncn3c2C(=O)N(C2CC2)[C@](C)(C(=O)NCc2ccc(F)cc2)C3)c(C)c1	-7%	1.17	–	–

Compound	% Inhibition	Z score	% Inhibition (2 µM)	Z score (2 µM)
CC(=O)Nc1c(C)ccc(NC(=O)NCCCn2ccccc2=O)c1C	-16%	2.14	–	–
Cc1cc(S(=O)(=O)N[C@H]2COC[C@@H]2N2CCCC2)c(C)s1	-1%	0.15	–	–
O=C1N[C@](O)(C(F)(F)F)C(=O)N1C1CCCCC1	-7%	1.13	–	–
CCc1ccc(OCC(=O)c2ccc3c(c2)N(Cc2nc(C(=O)NCC4CC4)co2)C(=O)CO3)cc1	-12%	1.56	–	–
CCCc1nc(C)c(CNC(=O)CC2CCN(C(C)C)CC2)s1	3%	-0.67	–	–
CC(C)(C)c1nnc2c(C#N)c(N)[nH]n2c1=O	29%	-3.71	–	–
Cc1cc(OC2CN(C(=O)Cc3noc4ccccc34)C2)cc(=O)n1C1CC1	-16%	1.78	–	–
C[C@@H](c1cnn(C)c1)N(C)CC(=O)Nc1ccnn1C1CCCC1	-14%	2.03	–	–
COC(=O)[C@@H]1C[C@H](O)CN1CC(C)c1ccc(F)cc1 (stereo partly drawn)	-3%	0.37	–	–
Cc1ccccc1-c1cc(C(=O)Nc2cccc3ccccc23)c2ccccc2n1	-11%	1.49	–	–
CCCC(NC(=O)NC1CCN(C)C1=O)c1ccccn1 (stereo not drawn)	6%	-0.84	–	–
COc1cccc(CN2C[C@]34C=C[C@H](O3)C(C(=O)N3CCCCCC3)C4C2=O)c1 (stereo partly drawn)	-9%	1.02	–	–
O=C(O)CN1CCCCC(NC2CCOc3c(Br)cccc32)C1=O (stereo not drawn)	1%	-0.09	–	–
Cc1nc(C(C)C)nc(C)c1OCc1nc(C2CC2)no1	-12%	2.09	–	–
COC(=O)N1CCc2ccc(Br)cc2C1C(=O)NCC1CCCO1 (stereo not drawn)	-6%	1.1	–	–
COCC1(CNCc2cc(Cl)cc(OC)c2OC)CCC1	-7%	1.41	–	–
CO[C@@H](C)C(=O)N(CC(=O)N1CCCCC1)c1ccc(C)cc1	-12%	1.51	–	–
O=C(NCCCNCc1cccnc1)c1cccc(F)c1Cl	-4%	0.52	–	–
CCC=C(C)C(=O)N1CCCC[C@@H]1CN	-1%	0.06	–	–
O=C(NC[C@H]1CCCN1c1nccs1)c1ccco1	-16%	3.09	–	–
Cc1nc(O)nc(C)c1CCC(=O)NCc1oc2ccccc2c1C	-1%	0.24	–	–

Compound	% Inhibition	Z score	% Inhibition (2 µM)	Z score (2 µM)
CC[C@H](C)[C@H](N)C(=O)OCc1ccccc1	1%	-0.1	–	–
Cc1cnc(NC(=O)CCOCC(C)C)s1	-5%	0.74	–	–
O=C(COc1cccc(Cl)c1)NC(C1CC1)C1CC1	4%	-0.83	–	–
Cc1cc(C(=O)N(C)C2Cc3ccccc3C2)c(NC(=O)C(C)(C)C)s1	-3%	0.38	–	–
CC[C@H]1CCCCN1S(=O)(=O)c1ccc2c(c1)CCC(=O)N2	-6%	0.89	–	–
CC(C)C[C@@H]1CN(C(=O)CCC(=O)Nc2nncs2)CC[C@]1(C)O	-18%	2.38	–	–
COc1ccccc1CN[C@H]1COCc2ccccc21	-1%	0.18	–	–
N#CCN1CCC(CNC(=O)c2ccncc2F)CC1	-9%	1.76	–	–
C=CCOc1ccccc1CN(CC)C(=O)Cc1c(C)[nH][nH]c1=O	15%	-1.89	–	–
Cc1noc(C)c1C(=O)N1CCOC2CCCCC21 (stereo not drawn)	-10%	1.37	–	–
CCn1nnnc1NC(=O)NCC[C@H]1CCC2(CCC2)O1	-5%	1.06	–	–
Cc1ccc2nc(-c3ccc(C)o3)c(NC(=O)c3ccc(F)cc3)n2c1	-9%	1.24	–	–
COC(=O)N1CCc2ccc(Br)cc2[C@@H]1C(=O)NCc1ccc2c(c1)OCO2	0%	0.07	–	–
CCn1nc(C2CCOCC2)nc1C[C@@H]1NC(=O)c2ccccc21	-4%	0.52	–	–
N#Cc1cn[nH]c1NC(=O)C(=O)N1CCN(c2ccc(F)cc2)CC1	–	–	-7% and -4%	0.9 and 0.47
CS(=O)(=O)NC[C@H]1CCOC2(CCN(C(=O)c3cncc(Br)c3)CC2)C1	-12%	1.93	–	–
CNC(=O)C1CN([C@@H](C)C(=O)OC(C)(C)C)C1	0%	0	–	–
COc1cc(NC(=O)[C@H]2CCCN(c3cc(=O)n(C)c(=O)n3C)C2)cc(OC)c1OC	-1%	0.09	–	–
Cc1noc(NC(=O)c2cc3c(F)cccc3s2)n1	-3%	0.41	–	–
Cc1cccc(C)c1NC(=O)CN(CC(=O)Nc1c(C)cccc1C)Cc1ccccc1C(F)(F)F	0%	-0.07	–	–
COc1cccc(-c2nc3ccc(-c4cccc(C(F)(F)F)c4)cn3c2CCC(=O)NC2CCCCC2)c1	1%	-0.06	–	–

Reference: ChEMBL document CHEMBL4888484, “Replenishing the malaria drug discovery pipeline: Screening and hit evaluation of the MMV Hit Generation Library 1 (HGL1) against asexual blood stage Plasmodium falciparum ,using a nano luciferase reporter read-out” (2022)
